{"source": "the supplement of paper PMC10441789", "note": "The other results are listed elsewhere or left out. Antibody binding of pooled human sera (four to six donors per pool; dilution not stated) to peptides of the Trypanosoma cruzi antigen TSSA on microarrays. Quantile-normalised fluorescence in arbitrary units, mean of duplicate arrays; higher = more binding. No active / inactive call. The uninfected pools are read here as the healthy donors of the same country. The strongest signals lie near the top of the scale (about 60,000)."}
{"tested_on": "pooled sera of chronic Chagas disease patients, Argentina", "assay": "antibody binding signal (normalised fluorescence) (arbitrary fluorescence units); higher = stronger serum antibody binding to peptide", "protocol": "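Microarray of 15-residue peptides over residues 30-55 of Trypanosoma cruzi TSSAII, each with 1 to 10 substitutions at naturally variable positions, probed with one serum pool per country.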"}
{"sequence": "GKDKKAAAGEAPSPP", "antibody binding signal": 370}
{"sequence": "SGTDNKAAAGEAPSQ", "antibody binding signal": 474}
{"sequence": "EKKTAAGGTPSQSGA", "antibody binding signal": 954}
{"sequence": "GTENKPAAGGAPSQP", "antibody binding signal": 45500}
{"sequence": "TDKKTATGGTPSQSG", "antibody binding signal": 1000}
{"sequence": "TENKPATGETPSQPG", "antibody binding signal": 44100}
{"sequence": "KDNKTAAGETPSPSG", "antibody binding signal": 1120}
{"sequence": "KENKAAAGEAPSPSG", "antibody binding signal": 190}
{"sequence": "SGTEKKAATGEAPSP", "antibody binding signal": 22300}
{"sequence": "TPPSGKDNKTATGGA", "antibody binding signal": 7440}
{"sequence": "TSSTPPSGTEKKTAA", "antibody binding signal": 33100}
{"sequence": "SGTDKKPAAGETPSQ", "antibody binding signal": 395}
{"sequence": "TDNKAAAGEAPSQPG", "antibody binding signal": 6510}
{"sequence": "GKDKKAAAGGAPSPP", "antibody binding signal": 178}
{"sequence": "GTDNKAATGGAPSQP", "antibody binding signal": 672}
{"sequence": "GKENKAATGGAPSPS", "antibody binding signal": 2100}
{"sequence": "KKAATGEAPSPPGAS", "antibody binding signal": 5950}
{"sequence": "EKKTATGETPSPPGA", "antibody binding signal": 458}
{"sequence": "KAATGEAPSPPGASS", "antibody binding signal": 22700}
{"sequence": "GTENKTATGGTPSQS", "antibody binding signal": 26200}
{"sequence": "SGTDNKPAAGGTPSP", "antibody binding signal": 2180}
{"sequence": "STPPSGKDNKTAAGG", "antibody binding signal": 27400}
{"sequence": "TSSTPPSGTDNKTAT", "antibody binding signal": 30400}
{"sequence": "EKKPAAGGAPSQPGA", "antibody binding signal": 925}
{"sequence": "GTDKKPAAGGAPSQS", "antibody binding signal": 457}
{"sequence": "ISTPPSGTENKTAAG", "antibody binding signal": 53400}
{"sequence": "ENKPATGGTPSPPGA", "antibody binding signal": 963}
{"sequence": "TISTPPSGKEKKPAA", "antibody binding signal": 20400}
{"sequence": "GKEKKTATGGTPSPP", "antibody binding signal": 3780}
{"sequence": "GTENKTAAGGAPSPS", "antibody binding signal": 33100}
{"sequence": "SSTPPSGTENKAATG", "antibody binding signal": 49200}
{"sequence": "GTDKKAATGEAPSPS", "antibody binding signal": 21700}
{"sequence": "GTEKKAATGGTPSPP", "antibody binding signal": 1140}
{"sequence": "DNKPATGGTPSPSGA", "antibody binding signal": 503}
{"sequence": "KEKKPATGGTPSPSG", "antibody binding signal": 430}
{"sequence": "GKDKKAAAGGTPSQS", "antibody binding signal": 211}
{"sequence": "DNKTATGETPSQSGA", "antibody binding signal": 893}
{"sequence": "TPPSGKENKAATGGT", "antibody binding signal": 9700}
{"sequence": "KEKKAATGETPSQPG", "antibody binding signal": 1600}
{"sequence": "GTEKKTAAGGTPSQP", "antibody binding signal": 747}
